Data published in the supplement of paper PMC3334620.
Over roughly 33,000 sequences, “E-score (-0.5 to 0.5)” has its median near -0.011; the highest 2% begin near 0.28. This is one part of the list.

target: T1, Gcr1 (UniProt P07261); test: PBM E-score (8-mer binding enrichment) (E-score (-0.5 to 0.5)); higher = stronger / more preferred TF binding; most listed sequences are background and not binding sites; conditions: protein concentration: 100 nM; construct: GST-full length
T1 sequence: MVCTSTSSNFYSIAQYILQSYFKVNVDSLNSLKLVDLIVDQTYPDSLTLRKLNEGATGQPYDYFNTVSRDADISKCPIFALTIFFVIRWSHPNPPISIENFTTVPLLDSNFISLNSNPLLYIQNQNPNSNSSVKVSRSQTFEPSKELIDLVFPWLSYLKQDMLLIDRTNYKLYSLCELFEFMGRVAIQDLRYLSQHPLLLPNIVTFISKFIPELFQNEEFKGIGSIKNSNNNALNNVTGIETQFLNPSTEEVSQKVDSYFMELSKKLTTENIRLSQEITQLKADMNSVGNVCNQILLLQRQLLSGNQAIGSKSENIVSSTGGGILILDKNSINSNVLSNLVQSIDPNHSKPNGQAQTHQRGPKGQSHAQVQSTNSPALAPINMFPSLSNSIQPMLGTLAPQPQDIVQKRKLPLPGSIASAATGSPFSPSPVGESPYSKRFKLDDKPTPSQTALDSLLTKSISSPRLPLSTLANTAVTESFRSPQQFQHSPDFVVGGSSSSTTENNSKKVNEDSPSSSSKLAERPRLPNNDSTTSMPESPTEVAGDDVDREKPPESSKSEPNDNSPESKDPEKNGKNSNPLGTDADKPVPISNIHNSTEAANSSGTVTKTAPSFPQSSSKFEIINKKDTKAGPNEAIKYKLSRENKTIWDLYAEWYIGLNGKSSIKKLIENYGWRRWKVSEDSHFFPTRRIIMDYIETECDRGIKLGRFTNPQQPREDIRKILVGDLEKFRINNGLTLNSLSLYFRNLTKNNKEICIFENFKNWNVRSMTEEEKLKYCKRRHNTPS
Procedure: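 Universal 'all 10-mer' protein binding microarrays (Agilent AMADID 015681) probed with GST-tagged S. cerevisiae TFs (full-length or DBD) made by in vitro transcription/translation (PURExpress), about 100-200 nM. Bound TF was detected with fluorescent anti-GST. Each ungapped 8-mer (which stands for itself and its reverse complement) is scored by the PBM enrichment score (E-score), a modified Wilcoxon-Mann-Whitney statistic from -0.5 to +0.5, computed with the Universal PBM Analysis Suite. Scale: above 0.35 generally sequence-specific binding.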

Sequence | PBM E-score
ACTCTCCG | -0.0847
ACGAATAG | -0.0975
CTCCTAGC | -0.149
CCAGTAGG | 0.198
TATTACCA | 0.122
GGAGTTGA | 0.0702
ACGGAGGC | -0.00955
GATCACGC | -0.0396
CGTGACGA | -0.0286
TCCCGCAA | 0.0539
ACACTACA | 0.125
GGCGTTCA | 0.0407
ACCTAAAA | 0.207
CAGTACCC | 0.0548
ACCCACTG | 0.147
GACCGTTA | -0.116
CATCGCAC | -0.162
TCAGGACA | 0.141
CGCGTCTC | 0.301
ACTCTTAT | -0.0208
TATACAGA | 0.145
CGCATACA | 0.189

Sequence | PBM E-score
GCGGTAGA | -0.304
CGGCGTTC | 0.0712
GCATGAAC | -0.0386
GCGGAATA | -0.0316
CACCATGC | 0.0319
GAGTTTTA | -0.0333
AGCACAAA | 0.00523
CAGATGGG | 0.044
ACCATCGT | -0.305
ACCGAATA | -0.0481
CAAGACGG | -0.218
GTCCCGGA | 0.158
CCTGGTAA | 0.0703
CCCGACGA | 0.0476
CCTAGTAG | 0.202
ATTGATAA | 0.143
CCTCGAGA | -0.0892
ACCTCACT | -0.16
ACACGTAG | 0.123
AAGCTGCT | 0.185
TAGACGGA | -0.0232
GAGCTTTA | -0.131

Sequence | PBM E-score
GCGGGACC | 0.0998
GCACGCAC | -0.0614
AACGGGAG | 0.056
TCACGCGA | -0.0406
TCTCGGCA | 0.152
CCCCTTAA | 0.0343
ACACATAA | -0.0773
TTTTAAAA | 0.153
AGTGTACA | 0.0281
AGGGGAGA | -0.0201
CGTAGCAA | -0.0485
GTGGCTTA | -0.00723
CGGTAGGC | -0.0818
CTTCCAAC | 0.181
CGCAGTCC | -0.0173
GAGGCTTA | -0.14
CGAAAGTC | -0.144
CACTGCGC | 0.0628
AAAGAGTG | 0.0629
AGTAAAAG | 0.181
GTCCACTA | 0.334
GTCAAGTA | -0.284

Sequence | PBM E-score
AGGAGAGA | 0.0991
GAGACTCC | -0.0481
CAAAAGTG | 0.0522
CGCTGTCC | -0.254
GGTGGTAA | -0.0891
ACTCTACC | -0.158
TGGAAGAA | 0.117
ATCATGCC | -0.00305
ATTGCGAA | 0.129
AGTCGGTA | -0.0934
AACCCAGG | 0.056
TATGGTAA | 0.00173
GGCATGTA | 0.0177
GCGTGGAA | -0.157
GTACAAAC | 0.012
ACCATGTG | -0.0658
AAAGCGTC | 0.013
TCCCATCA | -0.0692
ATAATTAG | 0.154
CCCACAGC | 0.221
